# The supplement of paper PMC10126150
# Sequences with one replicate were seen in a single cluster, so their values are uncertain.
# System: ATP
# Assay: switch fluorescence ratio, 500 uM ATP over buffer (Cy3 cluster intensity, sum of 5 cycles each) (fold (ratio)); higher = stronger signal-on switching upon ATP binding; sequences stand for … in TCGTCGGCAGCGTCAGATGTGTATAAGAGACAGTTTTTTTTTTTTTTTTTTTTTTTTT…TC
# Settings: aptamer strand: ATP DNA aptamer (quencher-CACCTGGGGGAGTATTGCGGAGGAAGG + anchor), 100 nM annealed; ATP concentration: 500 uM; one replicate
# Procedure, shortened: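 Clusters with intensities outside 100-1000 RFU were excluded. The remaining Cy3-labelled switching-strand clusters on a modified Illumina MiSeq flow-cell had been annealed to 100 nM quencher-labelled ATP aptamer and imaged in selection buffer, then after 15 min with 500 uM ATP at 22 °C, for five cycles separated by NaOH stripping and re-annealing. The fluorescence ratio, averaged per switch-domain sequence, is each cluster's summed target-cycle Cy3 intensity over its summed buffer-cycle Cy3 intensity.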
# 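Note: ATP exposure 15 min at 22 °C before imaging.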
row,Sequence,switch fluorescence ratio
1,GTTAGTGAA,0.989
2,GTTAGTGCTA,0.991
3,GTTATATTCG,1.05
4,GTTATATTT,0.997
5,GTTATCATCG,0.975
6,GTTATCGGGC,1.03
7,GTTATCTGTT,0.961
8,GTTATGAT,1.04
9,GTTATGCATT,0.987
10,GTTATGTCGA,0.957
11,GTTATTACTG,1.01
12,GTTATTCTAT,0.978
13,GTTATTGTAA,0.966
14,GTTCAACAGT,0.968
15,GTTCAAGGTT,1.01
16,GTTCAATGGG,0.97
17,GTTCAGGGGT,0.959
18,GTTCATAATC,1.01
19,GTTCCACTAG,0.995
20,GTTCCAGGCG,1.06
21,GTTCCCACGG,1.13
22,GTTCCCATGC,1.27
23,GTTCCGTACT,1.1
24,GTTCCTGTTA,0.97
25,GTTCGGCGGG,0.995
26,GTTCGGGGGC,1.02

row,Sequence,switch fluorescence ratio
1,GTTCGTAGCG,0.942
2,GTTCTAAGGG,1.05
3,GTTCTACCAC,1.02
4,GTTCTACTCA,0.991
5,GTTCTCTTTA,1.01
6,GTTCTTGTA,0.989
7,GTTCTTTAAG,0.979
8,GTTGAAAATG,1
9,GTTGACCAAA,1.01
10,GTTGACCATG,0.995
11,GTTGACGAAC,0.993
12,GTTGACTCG,1
13,GTTGAGCAAT,2.89
14,GTTGAGTAGT,1.07
15,GTTGAGTTT,0.98
16,GTTGATCAAG,0.96
17,GTTGATGAAC,1.02
18,GTTGCACCAG,1.02
19,GTTGCCATAC,1.8
20,GTTGCGCATT,1.08
21,GTTGCGCGGC,1
22,GTTGCGCTTG,1.01
23,GTTGCGGGCC,0.918
24,GTTGCGTCG,0.987
25,GTTGCTGTCT,0.977
26,GTTGCTTACC,1

row,Sequence,switch fluorescence ratio
1,GTTGCTTGTA,1
2,GTTGGAACCA,1.01
3,GTTGGAGT,0.975
4,GTTGGCCAAA,0.998
5,GTTGGCCACG,0.979
6,GTTGGCGCA,0.99
7,GTTGGCGGAA,0.961
8,GTTGGGCA,1.04
9,GTTGGGCCAA,1.02
10,GTTGGGCTGT,0.987
11,GTTGGGTTGA,0.95
12,GTTGGTCCGA,1
13,GTTGGTTGT,1.01
14,GTTGGTTTGC,1.02
15,GTTGTACTGA,0.969
16,GTTGTAGAGA,1.02
17,GTTGTCAATC,1.09
18,GTTGTCATTA,1.03
19,GTTGTCCGTA,1.03
20,GTTGTGACAT,1.02
21,GTTGTGCAT,1.02
22,GTTGTGCTAA,0.987
23,GTTGTGGCCT,1.03
24,GTTGTTCCGT,0.955
25,GTTGTTCGCT,0.977
26,GTTGTTCTCG,1.02

row,Sequence,switch fluorescence ratio
1,GTTTAAAGGC,1.02
2,GTTTAACAAC,0.993
3,GTTTACCCTT,1.29
4,GTTTAGGTCG,1.01
5,GTTTAGTAAC,0.98
6,GTTTATAAGA,0.989
7,GTTTATAGGA,1.01
8,GTTTATGATG,1
9,GTTTATGGAT,1.02
10,GTTTATGTGC,1.01
11,GTTTATGTTG,1.02
12,GTTTCAAATT,0.992
13,GTTTCCCAGG,1.04
14,GTTTCCCGGG,0.996
15,GTTTCGAGTC,0.989
16,GTTTCGCCGG,1
17,GTTTCGGCCC,1.01
18,GTTTCTAACT,1.06
19,GTTTCTGTT,0.966
20,GTTTCTGTTG,1.01
21,GTTTGAAGAT,0.985
22,GTTTGACGCG,0.921
23,GTTTGACGGA,1.02
24,GTTTGACGTA,0.956
25,GTTTGCAGCT,0.987
26,GTTTGCGCTG,1.02

row,Sequence,switch fluorescence ratio
1,GTTTGGATGG,0.943
2,GTTTGGCGCG,1.01
3,GTTTGGGTT,1.01
4,GTTTGTACAT,1.02
5,GTTTTACC,0.996
6,GTTTTACTTA,1.04
7,GTTTTGCCGA,0.938
8,GTTTTTACAG,0.973
9,GTTTTTGTAG,0.999
10,TAAAAAATAA,0.983
11,TAAAAATCCG,0.967
12,TAAAACAGCT,1.06
13,TAAAAGCATC,1.02
14,TAAAATCACC,1.17
15,TAAAATGGTA,1.06
16,TAAAATTTTC,1.04
17,TAAACATGGT,0.939
18,TAAACATTT,0.992
19,TAAACCAGTG,1.16
20,TAAACCGACC,2.94
21,TAAACGATGG,1.01
22,TAAACGGGAA,1.01
23,TAAACGTAGG,0.983
24,TAAACGTGAA,1.07
25,TAAACTACT,1.04
26,TAAAGAAAAC,0.937

row,Sequence,switch fluorescence ratio
1,TAAAGACTGG,1.03
2,TAAAGAGACC,1.02
3,TAAAGATTCA,1.02
4,TAAAGCAAAT,0.994
5,TAAAGCGCGC,0.95
6,TAAAGCTAAT,1.03
7,TAAAGCTGCG,0.993
8,TAAAGGTTCC,1.18
9,TAAAGTGAAA,1.07
10,TAAAGTTCCT,1.1
11,TAAATAGGCG,1.05
12,TAAATATTAA,0.977
13,TAAATCAGCT,0.998
14,TAAATCTAA,1
15,TAAATCTTTG,1.04
16,TAAATGGT,0.981
17,TAAATGTAAT,1.03
18,TAAATTGAGC,0.995
19,TAACAGACAA,1.08
20,TAACAGCCGA,1
21,TAACAGGCGA,1.17
22,TAACATTAAC,1.01
23,TAACATTGGA,1.04
24,TAACCAACA,1.09
25,TAACCGTTCA,0.992
26,TAACCTTACA,1.42

row,Sequence,switch fluorescence ratio
1,TAACGAAATA,1.08
2,TAACGGAAT,1.11
3,TAACGGGATA,1
4,TAACGTAACG,1.07
5,TAACGTAATT,1.22
6,TAACTACATG,0.992
7,TAACTACCG,1.05
8,TAACTCAATG,1.01
9,TAACTCGTTT,0.948
10,TAACTCTAAT,1
11,TAACTGAAA,0.943
12,TAACTGGTGC,1.23
13,TAACTGTGAA,0.979
14,TAACTGTTCG,0.987
15,TAACTTTATT,1.02
16,TAAGAAAGCT,1.2
17,TAAGACGGTA,1
18,TAAGACTTAC,1.31
19,TAAGAGAGAG,0.99
20,TAAGAGAGGA,1.04
21,TAAGAGATCG,0.922
22,TAAGAGGAC,0.955
23,TAAGATTCTC,1
24,TAAGCACTCA,1.29
25,TAAGCCCCGG,1.05
26,TAAGCCGCCG,1.06

row,Sequence,switch fluorescence ratio
1,TAAGCCGCGC,1
2,TAAGCCTATC,1.11
3,TAAGCGACTC,1.21
4,TAAGCGAGAA,1.03
5,TAAGCGTAAT,1.06
6,TAAGCGTTGC,1.03
7,TAAGCTATGT,0.961
8,TAAGGAATAT,1.06
9,TAAGGCACCT,1.21
10,TAAGGCGATT,0.962
11,TAAGGCTAGC,0.954
12,TAAGGGCTAG,1.02
13,TAAGGGGA,1.32
14,TAAGGGGTA,0.996
15,TAAGGGTAAA,0.983
16,TAAGGTCTGG,0.996
17,TAAGGTTCTA,1
18,TAAGGTTGCG,1.01
19,TAAGTAAACG,0.919
